Test results taken from publication PMC6919601, “Identification of Plasmodium dipeptidyl aminopeptidase allosteric inhibitors by high throughput screening” (PLoS ONE, 2019).
Screen size: about 110,000 compounds; about 230 (0.21%) showed an effect of 50% or more. This is one part of the list.

Biological target: DPAP1 (Plasmodium falciparum, UniProt Q8IIJ9)
Experiment: primary screen, percent inhibition; read by cleavage of a fluorogenic dipeptide substrate; higher = more effect of the substance
Design: species or system P. falciparum D10 trophozoite lysates; single well
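Note: 30 min substrate incubation versus DMSO and 10 µM JCP410 controls.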

Chain of DPAP1 (Q8IIJ9 whole entry, looked up): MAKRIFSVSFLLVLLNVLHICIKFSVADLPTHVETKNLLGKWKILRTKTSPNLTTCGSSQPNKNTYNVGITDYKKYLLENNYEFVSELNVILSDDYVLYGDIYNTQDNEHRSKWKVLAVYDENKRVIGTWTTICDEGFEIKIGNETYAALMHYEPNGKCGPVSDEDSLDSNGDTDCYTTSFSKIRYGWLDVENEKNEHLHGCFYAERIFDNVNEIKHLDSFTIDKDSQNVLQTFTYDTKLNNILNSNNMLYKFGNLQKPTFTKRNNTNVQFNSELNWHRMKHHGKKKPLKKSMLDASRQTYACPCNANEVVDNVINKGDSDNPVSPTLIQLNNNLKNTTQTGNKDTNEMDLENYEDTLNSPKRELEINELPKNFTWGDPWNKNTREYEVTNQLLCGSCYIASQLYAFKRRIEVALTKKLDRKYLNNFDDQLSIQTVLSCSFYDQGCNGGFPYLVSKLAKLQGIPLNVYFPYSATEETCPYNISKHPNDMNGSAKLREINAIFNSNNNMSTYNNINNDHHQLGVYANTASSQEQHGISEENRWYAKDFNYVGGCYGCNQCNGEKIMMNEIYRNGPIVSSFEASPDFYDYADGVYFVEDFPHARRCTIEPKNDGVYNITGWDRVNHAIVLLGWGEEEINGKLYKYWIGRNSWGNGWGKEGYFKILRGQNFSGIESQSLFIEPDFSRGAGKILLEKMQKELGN

Q: With `Cc1ccsc1CCNC(=O)c1cc(S(=O)(=O)N2CCOCC2)cn1C` as the compound, how does the “% Inhibition @ 10 uM” value read?
A: 1.39%

Q: How did the “% Inhibition @ 10 uM” value turn out when `O=C(O)C1C2CCC(C2)C1C(=O)Nc1ccccc1F` (stereo not shown) was run?
A: -1.12%

Q: `Cc1cc2nc3c(=O)n(Cc4ccccc4)c(=O)[nH]c3nc2cc1N` was tested. Which “% Inhibition @ 10 uM” value did it give?
A: -4.21%

Q: `COc1cccc(/C=C2\NC(=O)N(c3cccc(Cl)c3)C2=O)c1O` was tested. Which “% Inhibition @ 10 uM” value did it give?
A: -3.71%

Q: Which “% Inhibition @ 10 uM” value does the source give for `Cc1ccccc1OCCCCN1CCCCC1` here?
A: 2.76%

Q: How did the “% Inhibition @ 10 uM” value turn out when `Cc1ccc(C)c(Cn2cccc2C2=NCCO2)c1` was run?
A: -9.23%

Q: For `COc1cc(/C=C/c2ccc([N+](=O)[O-])cc2)ccc1O`, which “% Inhibition @ 10 uM” value is on record?
A: -2.51%

Q: How did the “% Inhibition @ 10 uM” value turn out when `Cc1ccc2oc3c(c2c1)-c1oc(C)cc1C(C)(c1ccccc1)CC3` (stereo not shown) was run?
A: 4.51%

Q: `CC(=O)Nc1ccc(N2C(=O)c3ccc(C(=O)O)cc3C2=O)cc1` was tested. Which “% Inhibition @ 10 uM” value did it give?
A: 0.266%

Q: With `Cc1[nH]c2ccccc2c1SCCNC(=O)Cc1cccc2ccccc12` as the compound, how does the “% Inhibition @ 10 uM” value read?
A: -0.972%

Q: `NC(CC(=O)O)c1cccc2ccccc12` (stereo not shown) was tested. Which “% Inhibition @ 10 uM” value did it give?
A: -0.0267%

Q: With `Cc1ccc(S(=O)(=O)c2nnn3c2nc(N2CCCCCC2)c2sccc23)cc1` as the compound, how does the “% Inhibition @ 10 uM” value read?
A: -2.26%

Q: How did the “% Inhibition @ 10 uM” value turn out when `Cc1ccc(S(=O)(=O)NCC2CCC(C(=O)NCCCN3CCCC3)CC2)cc1` (stereo not shown) was run?
A: -0.971%

Q: With `CCCOc1ccc(CN(C(=O)c2cc(=O)c3cc(Cl)ccc3o2)C2CCS(=O)(=O)C2)cc1` (stereo not shown) as the compound, how does the “% Inhibition @ 10 uM” value read?
A: 9.43%

Q: Which “% Inhibition @ 10 uM” value does the source give for `Cc1cc2c3c(c1C)C(=O)C(=O)N3C(C)(C)CC2C` (stereo not shown) here?
A: 0.889%

Q: How did the “% Inhibition @ 10 uM” value turn out when `Nc1nnc(SCC(=O)Nc2ccccn2)s1` was run?
A: -2.87%

Q: With `COc1ccc(S(=O)(=O)N2CCN(c3ccccc3OC)CC2)cc1OC` as the compound, how does the “% Inhibition @ 10 uM” value read?
A: 2.92%

Q: Which “% Inhibition @ 10 uM” value does the source give for `COc1ccc(OC)c(NC(=O)C(N)=O)c1` here?
A: -4.24%

Q: Which “% Inhibition @ 10 uM” value does the source give for `CCc1ccc(Sc2cc(C(=O)NCCCOC)c3ccccc3n2)cc1` here?
A: 1.62%

Q: With `Cc1occc1C(=O)Nc1nc(-c2ccc(Cl)c(Cl)c2)cs1` as the compound, how does the “% Inhibition @ 10 uM” value read?
A: -4.13%

Q: With `Cc1ccc(F)cc1S(=O)(=O)NCCSc1nnc(CN2CCOCC2)n1-c1ccccc1` as the compound, how does the “% Inhibition @ 10 uM” value read?
A: -0.92%

Q: Which “% Inhibition @ 10 uM” value does the source give for `Cc1cccc(C)c1-n1nnnc1C(c1ccc(O)cc1)N1CCOCC1` (stereo not shown) here?
A: 9.68%

Q: Which “% Inhibition @ 10 uM” value does the source give for `CC(Sc1cccc[n+]1[O-])c1ccccc1` (stereo not shown) here?
A: 4.11%

Q: Which “% Inhibition @ 10 uM” value does the source give for `CCOC(=O)c1c(NC(=O)C(c2ccccc2)c2ccccc2)sc2c1C1CCN2CC1` here?
A: -6.78%

Q: `CC1CCN(S(=O)(=O)c2c[nH]cn2)CC1` was tested. Which “% Inhibition @ 10 uM” value did it give?
A: 4.51%

Q: `COc1ccc(Br)cc1CNC(=O)C1CCCN(C(=O)N(C)C)C1` (stereo not shown) was tested. Which “% Inhibition @ 10 uM” value did it give?
A: 0.514%

Q: `CC(C)OC(=O)c1nnn(-c2nonc2N)c1CN1CCCCC1` was tested. Which “% Inhibition @ 10 uM” value did it give?
A: 14.6%

Q: For `COc1ccc(C(=O)Nc2cc(Cl)cc(Cl)c2)cc1`, which “% Inhibition @ 10 uM” value is on record?
A: 1.91%

Q: With `COC(=O)c1cc2occc2n1Cc1cccc(Cl)c1` as the compound, how does the “% Inhibition @ 10 uM” value read?
A: -0.246%

Q: For `CCCN(CCC)CCNC(=O)c1cc2c(C)nc3ccccc3c2o1`, which “% Inhibition @ 10 uM” value is on record?
A: -0.22%

Q: `CC(C)(C)C(=O)CNC1C2CC3CC(C2)CC1C3` (stereo not shown) was tested. Which “% Inhibition @ 10 uM” value did it give?
A: 1.13%

Q: For `Cc1c(CC(C)C)nc(N)c(C#N)c1-c1ccc(F)cc1`, which “% Inhibition @ 10 uM” value is on record?
A: 2.92%

Q: For `CCCCN1CC2=C(C1=O)C(c1ccc(O)cc1)NC(=O)N2C` (stereo not shown), which “% Inhibition @ 10 uM” value is on record?
A: -2.63%

Q: `COc1ccc(-c2nc(O)c3c(n2)Oc2ccc(Br)cc2C3)c(OC)c1OC` was tested. Which “% Inhibition @ 10 uM” value did it give?
A: 2.32%

Q: For `Clc1ncnc2c1nc1n2CCCCC1`, which “% Inhibition @ 10 uM” value is on record?
A: 5.12%

Q: `O=C(COc1ccccc1)Nc1cccc2cccnc12` was tested. Which “% Inhibition @ 10 uM” value did it give?
A: -0.795%

Q: Which “% Inhibition @ 10 uM” value does the source give for `COc1ccc(CCNc2nc3ccccc3c3nc(-c4cccnc4)nn23)cc1OC` here?
A: -2.42%

Q: With `Cc1c(C(=O)NCc2ccc(OC(C)C)cc2)oc2c1-c1n[nH]cc1CC2` as the compound, how does the “% Inhibition @ 10 uM” value read?
A: 21.6%

Q: Which “% Inhibition @ 10 uM” value does the source give for `Cc1n[nH]c(C)c1CCCOc1ccccc1` here?
A: -1.05%

Q: How did the “% Inhibition @ 10 uM” value turn out when `COc1ccccc1OCc1cccc(C(=O)O)c1` was run?
A: 1.69%

Q: How did the “% Inhibition @ 10 uM” value turn out when `O=C(O)c1cc(S(=O)(=O)N2CCCCCC2)ccc1Cl` was run?
A: 3.85%

Q: Which “% Inhibition @ 10 uM” value does the source give for `CCN1CCN(Cc2ccc(OC)c(OC)c2OC)CC1` here?
A: 3.25%

Q: Which “% Inhibition @ 10 uM” value does the source give for `O=C(CCCn1c(=O)c2cccn2c2cccnc21)N1CCN(Cc2ccc3c(c2)OCO3)CC1` here?
A: 0.677%

Q: With `COC(=O)c1sc(-c2ccccc2)cc1N` as the compound, how does the “% Inhibition @ 10 uM” value read?
A: 2.84%

Q: `Cc1cc(C)cc(-n2nnc(-c3nc(-c4ccncc4)no3)c2N)c1` was tested. Which “% Inhibition @ 10 uM” value did it give?
A: 1.13%

Q: For `COc1cc(C(=O)NC2CC2)cc(OC)c1OC`, which “% Inhibition @ 10 uM” value is on record?
A: -3.39%

Q: How did the “% Inhibition @ 10 uM” value turn out when `Cn1c(C(=O)NC2CCS(=O)(=O)C2)cc2c(=O)n3ccccc3nc21` (stereo not shown) was run?
A: 0.214%

Q: For `COc1ccc(OCCCC(=O)Nc2ccc(OC)c(Cl)c2)cc1`, which “% Inhibition @ 10 uM” value is on record?
A: -6.75%

Q: Which “% Inhibition @ 10 uM” value does the source give for `COCCCNC(=O)Cn1nc(-c2ccc(Cl)cc2)ccc1=O` here?
A: -0.0542%

Q: How did the “% Inhibition @ 10 uM” value turn out when `COCCNS(=O)(=O)c1csc(C(N)=O)c1` was run?
A: 1.41%

Q: For `CC(=O)N1CCN(Cc2ccc(OC(F)(F)F)cc2)CC1`, which “% Inhibition @ 10 uM” value is on record?
A: -0.0648%

Q: With `COc1ccc(/C=C2/C(=O)N(c3ccccc3)C(=S)N(c3ccccc3OC)C2=O)cc1` as the compound, how does the “% Inhibition @ 10 uM” value read?
A: 11.2%
